Source: PubChem BioAssay AID226 (DTP/NCI, 2004)
Toxic doses and inconclusive results are not listed. The source holds more than one record for some entries. This list holds those alone. The source may hold further records. Results that share an entry differ for a reason that is not stated; some may be repeats, others may stem from another dose, organism or construct than stated.

System: B6C3F1 mice, intracerebral ependymoblastoma, median survival T/C
Experiment: NCI In Vivo Anticancer Drug Screen. Data for tumor model Ependymoblastoma (intracerebral) in B6C3F1 mice
Conditions: endpoint: median survival time; dose: 128.0 mg/kg/injection; schedule: Q01DX005 (ip); vehicle: saline with Tween-80; higher = longer survival
Procedure: The antitumor activity of compounds was measured in mice bearing transplantable tumors. Survival or tumor size were measured and the results are expressed as the measurement made in the treated group (T) divided by the measurement made in the vehicle treated control group (C). The tumor model used in this assay is Ependymoblastoma (intracerebral) in B6C3F1 mice

Structure (SMILES): CCCCCCCCN(C)/N=N/c1nc[nH]c1C(N)=O
- T/C: 114 % of control and 150 % of control
